Laboratory results taken from ChEMBL document CHEMBL1961873, “Compounds: GSK PKIS; Assays: Nanosyn kinase panel” (2012).
For part of these data: The strong results were mostly taken out for another list; the other results follow. The list shows a part of the results, in another mix than the full data.

Tests used:
[1] = target: Tyrosine-protein kinase SYK (Homo sapiens) (UniProt P43405); settings: at 1 µM
[2] = target: T1, Tyrosine-protein kinase Tec (Homo sapiens) (UniProt P42680); settings: at 0.1 µM
T1 sequence (whole entry): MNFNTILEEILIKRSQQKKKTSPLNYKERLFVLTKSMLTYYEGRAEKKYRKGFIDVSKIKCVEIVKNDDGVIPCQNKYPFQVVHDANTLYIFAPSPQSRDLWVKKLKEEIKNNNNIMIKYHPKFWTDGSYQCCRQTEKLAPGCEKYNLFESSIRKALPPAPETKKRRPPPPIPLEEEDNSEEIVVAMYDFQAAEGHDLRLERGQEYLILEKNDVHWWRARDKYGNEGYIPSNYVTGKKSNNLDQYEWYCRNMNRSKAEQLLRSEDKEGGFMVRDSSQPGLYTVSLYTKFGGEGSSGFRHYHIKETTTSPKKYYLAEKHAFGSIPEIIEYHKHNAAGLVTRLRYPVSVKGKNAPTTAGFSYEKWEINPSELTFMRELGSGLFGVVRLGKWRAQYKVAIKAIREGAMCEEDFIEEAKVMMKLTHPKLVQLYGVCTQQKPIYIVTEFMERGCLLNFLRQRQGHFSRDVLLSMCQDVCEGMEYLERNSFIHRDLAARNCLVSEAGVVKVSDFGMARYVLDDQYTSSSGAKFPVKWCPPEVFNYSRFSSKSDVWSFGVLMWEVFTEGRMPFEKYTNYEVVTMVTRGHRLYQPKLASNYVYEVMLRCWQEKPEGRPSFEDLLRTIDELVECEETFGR

[3] = target: T1, Tyrosine-protein kinase Tec (Homo sapiens); settings: at 1 µM
[4] = target: Angiopoietin-1 receptor (Homo sapiens) (UniProt Q02763); settings: at 0.1 µM
[5] = target: Angiopoietin-1 receptor (Homo sapiens) (UniProt Q02763); settings: at 1 µM
[6] = target: T2, Non-receptor tyrosine-protein kinase TNK1 (Homo sapiens) (UniProt Q13470); settings: at 0.1 µM
T2 sequence (whole entry): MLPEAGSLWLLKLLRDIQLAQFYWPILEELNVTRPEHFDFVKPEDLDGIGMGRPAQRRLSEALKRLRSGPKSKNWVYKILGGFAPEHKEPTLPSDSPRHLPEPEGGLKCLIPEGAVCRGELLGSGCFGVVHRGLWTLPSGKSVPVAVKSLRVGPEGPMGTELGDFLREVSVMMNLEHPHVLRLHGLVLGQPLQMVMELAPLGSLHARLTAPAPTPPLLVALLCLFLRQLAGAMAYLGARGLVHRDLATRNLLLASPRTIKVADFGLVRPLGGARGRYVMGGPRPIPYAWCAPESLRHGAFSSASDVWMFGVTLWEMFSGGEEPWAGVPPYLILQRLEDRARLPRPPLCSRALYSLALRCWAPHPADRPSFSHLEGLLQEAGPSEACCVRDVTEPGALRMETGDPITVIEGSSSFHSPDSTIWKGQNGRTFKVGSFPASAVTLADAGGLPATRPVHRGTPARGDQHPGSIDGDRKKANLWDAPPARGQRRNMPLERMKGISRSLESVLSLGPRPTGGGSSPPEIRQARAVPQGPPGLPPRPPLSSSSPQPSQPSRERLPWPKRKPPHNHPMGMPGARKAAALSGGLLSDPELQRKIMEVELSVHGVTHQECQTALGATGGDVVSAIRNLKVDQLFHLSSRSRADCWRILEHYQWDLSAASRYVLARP

[7] = target: T2, Non-receptor tyrosine-protein kinase TNK1 (Homo sapiens); settings: at 1 µM
[8] = target: Activated CDC42 kinase 1 (Homo sapiens) (UniProt Q07912); settings: at 0.1 µM
[9] = target: Activated CDC42 kinase 1 (Homo sapiens) (UniProt Q07912); settings: at 1 µM
[10] = target: High affinity nerve growth factor receptor (Homo sapiens) (UniProt P04629); settings: at 0.1 µM
[11] = target: High affinity nerve growth factor receptor (Homo sapiens) (UniProt P04629); settings: at 1 µM
[12] = target: BDNF/NT-3 growth factors receptor (Homo sapiens) (UniProt Q16620); settings: at 0.1 µM
[13] = target: BDNF/NT-3 growth factors receptor (Homo sapiens) (UniProt Q16620); settings: at 1 µM
[14] = target: NT-3 growth factor receptor (Homo sapiens) (UniProt Q16288); settings: at 0.1 µM
[15] = target: NT-3 growth factor receptor (Homo sapiens) (UniProt Q16288); settings: at 1 µM
[16] = target: T3, Tyrosine-protein kinase TXK (Homo sapiens) (UniProt P42681); settings: at 0.1 µM
T3 sequence (whole entry): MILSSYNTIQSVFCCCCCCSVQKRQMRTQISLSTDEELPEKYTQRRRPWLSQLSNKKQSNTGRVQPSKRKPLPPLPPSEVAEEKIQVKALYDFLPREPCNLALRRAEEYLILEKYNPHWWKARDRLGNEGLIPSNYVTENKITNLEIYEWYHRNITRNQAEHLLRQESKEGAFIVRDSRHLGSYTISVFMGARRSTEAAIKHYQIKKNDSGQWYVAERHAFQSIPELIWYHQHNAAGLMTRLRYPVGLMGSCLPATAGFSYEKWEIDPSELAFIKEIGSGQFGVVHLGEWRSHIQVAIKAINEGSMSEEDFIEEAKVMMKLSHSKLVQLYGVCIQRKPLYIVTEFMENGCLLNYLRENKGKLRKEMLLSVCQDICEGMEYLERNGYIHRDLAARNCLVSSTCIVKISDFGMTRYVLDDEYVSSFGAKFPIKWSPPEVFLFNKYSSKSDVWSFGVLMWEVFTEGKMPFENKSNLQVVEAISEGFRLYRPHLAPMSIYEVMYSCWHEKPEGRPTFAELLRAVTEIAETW

[17] = target: T3, Tyrosine-protein kinase TXK (Homo sapiens); settings: at 1 µM
[18] = target: Non-receptor tyrosine-protein kinase TYK2 (Homo sapiens) (UniProt P29597); settings: at 0.1 µM;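 also: each value is a mean of the inhibition readings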
[19] = target: T4, Dual specificity protein kinase TTK (Homo sapiens) (UniProt P33981); settings: at 1 µM;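 also: reported figures are mean TTK inhibition at 1 µM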
T4 sequence (whole entry): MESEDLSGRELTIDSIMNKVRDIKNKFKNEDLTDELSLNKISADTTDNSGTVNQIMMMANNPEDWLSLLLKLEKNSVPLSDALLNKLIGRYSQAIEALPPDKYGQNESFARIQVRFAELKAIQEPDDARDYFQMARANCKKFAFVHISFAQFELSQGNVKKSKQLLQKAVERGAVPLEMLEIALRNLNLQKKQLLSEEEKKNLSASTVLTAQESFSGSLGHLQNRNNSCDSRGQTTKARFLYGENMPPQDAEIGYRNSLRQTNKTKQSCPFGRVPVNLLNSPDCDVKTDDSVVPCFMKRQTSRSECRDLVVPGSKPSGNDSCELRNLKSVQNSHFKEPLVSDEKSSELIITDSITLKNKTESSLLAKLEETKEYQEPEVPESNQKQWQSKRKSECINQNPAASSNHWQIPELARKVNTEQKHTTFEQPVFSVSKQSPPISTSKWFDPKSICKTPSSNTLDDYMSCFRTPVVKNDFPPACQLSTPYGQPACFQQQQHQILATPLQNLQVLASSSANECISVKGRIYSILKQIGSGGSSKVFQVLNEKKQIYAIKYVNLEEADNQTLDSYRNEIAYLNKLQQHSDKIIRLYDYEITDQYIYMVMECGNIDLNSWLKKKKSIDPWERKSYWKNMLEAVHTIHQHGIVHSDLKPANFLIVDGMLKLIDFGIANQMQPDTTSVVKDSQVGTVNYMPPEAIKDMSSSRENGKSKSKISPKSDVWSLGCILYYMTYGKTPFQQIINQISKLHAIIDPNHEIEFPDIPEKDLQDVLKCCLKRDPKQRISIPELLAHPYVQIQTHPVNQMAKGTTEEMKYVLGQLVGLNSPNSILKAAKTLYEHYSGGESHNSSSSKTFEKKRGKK

[20] = target: T5, Aurora kinase A (Homo sapiens) (UniProt O14965); settings: at 0.1 µM;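 also: each reported value is a mean percent inhibition of Aurora-A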
T5 sequence (whole entry): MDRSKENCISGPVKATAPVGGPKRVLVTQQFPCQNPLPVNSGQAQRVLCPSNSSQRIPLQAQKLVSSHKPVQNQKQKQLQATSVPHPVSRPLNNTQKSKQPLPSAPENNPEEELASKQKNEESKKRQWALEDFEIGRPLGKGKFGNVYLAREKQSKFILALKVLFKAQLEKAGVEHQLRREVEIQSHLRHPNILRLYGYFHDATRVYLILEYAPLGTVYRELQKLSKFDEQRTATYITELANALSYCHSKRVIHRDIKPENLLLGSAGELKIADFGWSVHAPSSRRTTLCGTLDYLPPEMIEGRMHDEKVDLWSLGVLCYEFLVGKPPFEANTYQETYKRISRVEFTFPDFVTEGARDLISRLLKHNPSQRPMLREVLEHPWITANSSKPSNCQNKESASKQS

Sequence of UniProt Q02763 (Q02763 whole entry): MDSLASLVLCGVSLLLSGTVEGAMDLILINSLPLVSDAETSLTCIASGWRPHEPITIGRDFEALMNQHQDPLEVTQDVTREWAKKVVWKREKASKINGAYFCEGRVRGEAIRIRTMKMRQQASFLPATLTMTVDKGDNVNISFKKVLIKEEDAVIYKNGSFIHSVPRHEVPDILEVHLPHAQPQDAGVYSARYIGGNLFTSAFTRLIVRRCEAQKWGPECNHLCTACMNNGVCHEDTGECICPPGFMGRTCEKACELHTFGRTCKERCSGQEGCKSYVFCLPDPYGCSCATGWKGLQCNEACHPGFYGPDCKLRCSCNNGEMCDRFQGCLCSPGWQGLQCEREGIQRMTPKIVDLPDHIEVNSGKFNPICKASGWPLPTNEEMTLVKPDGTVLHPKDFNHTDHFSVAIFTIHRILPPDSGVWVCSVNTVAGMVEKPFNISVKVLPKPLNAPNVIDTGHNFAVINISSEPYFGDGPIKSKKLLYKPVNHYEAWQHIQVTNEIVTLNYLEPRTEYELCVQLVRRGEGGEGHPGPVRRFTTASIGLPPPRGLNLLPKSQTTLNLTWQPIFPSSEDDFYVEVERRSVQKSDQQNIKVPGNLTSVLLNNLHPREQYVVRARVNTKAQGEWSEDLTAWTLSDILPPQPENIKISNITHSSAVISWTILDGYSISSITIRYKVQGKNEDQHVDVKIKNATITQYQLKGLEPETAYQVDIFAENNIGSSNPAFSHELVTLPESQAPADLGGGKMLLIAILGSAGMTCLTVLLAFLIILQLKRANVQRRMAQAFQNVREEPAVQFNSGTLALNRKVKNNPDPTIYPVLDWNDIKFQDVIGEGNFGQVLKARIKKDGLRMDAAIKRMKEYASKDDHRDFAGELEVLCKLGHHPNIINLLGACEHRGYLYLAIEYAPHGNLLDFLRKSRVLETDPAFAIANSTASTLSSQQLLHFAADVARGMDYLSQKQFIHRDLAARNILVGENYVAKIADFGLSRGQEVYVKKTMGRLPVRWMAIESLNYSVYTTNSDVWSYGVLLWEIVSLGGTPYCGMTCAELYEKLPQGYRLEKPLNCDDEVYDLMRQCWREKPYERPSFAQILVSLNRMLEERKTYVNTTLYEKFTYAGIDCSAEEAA
Sequence of UniProt Q16288 (Q16288 whole entry, looked up): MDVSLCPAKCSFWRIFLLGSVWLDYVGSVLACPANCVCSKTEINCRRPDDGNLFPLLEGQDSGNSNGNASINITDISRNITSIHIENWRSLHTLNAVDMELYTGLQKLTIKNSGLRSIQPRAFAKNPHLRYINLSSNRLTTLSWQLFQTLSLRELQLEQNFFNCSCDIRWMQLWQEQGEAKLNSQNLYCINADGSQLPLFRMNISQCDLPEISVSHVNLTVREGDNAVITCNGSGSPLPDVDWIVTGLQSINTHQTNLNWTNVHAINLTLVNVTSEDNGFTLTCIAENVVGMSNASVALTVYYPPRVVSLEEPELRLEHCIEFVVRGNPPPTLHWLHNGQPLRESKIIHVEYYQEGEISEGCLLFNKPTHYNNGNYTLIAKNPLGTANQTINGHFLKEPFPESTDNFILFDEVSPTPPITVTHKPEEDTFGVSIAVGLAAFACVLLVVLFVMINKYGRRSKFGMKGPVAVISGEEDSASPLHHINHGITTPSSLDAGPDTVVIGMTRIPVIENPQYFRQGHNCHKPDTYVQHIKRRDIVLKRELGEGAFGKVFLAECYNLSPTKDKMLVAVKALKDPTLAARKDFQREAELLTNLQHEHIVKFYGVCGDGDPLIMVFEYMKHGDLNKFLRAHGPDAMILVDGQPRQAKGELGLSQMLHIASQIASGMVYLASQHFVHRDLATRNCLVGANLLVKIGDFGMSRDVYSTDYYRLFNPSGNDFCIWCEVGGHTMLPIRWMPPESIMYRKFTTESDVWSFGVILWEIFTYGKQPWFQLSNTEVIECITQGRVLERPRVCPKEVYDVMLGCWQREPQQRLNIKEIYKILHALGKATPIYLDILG
Sequence of UniProt P04629 (P04629 whole entry, looked up): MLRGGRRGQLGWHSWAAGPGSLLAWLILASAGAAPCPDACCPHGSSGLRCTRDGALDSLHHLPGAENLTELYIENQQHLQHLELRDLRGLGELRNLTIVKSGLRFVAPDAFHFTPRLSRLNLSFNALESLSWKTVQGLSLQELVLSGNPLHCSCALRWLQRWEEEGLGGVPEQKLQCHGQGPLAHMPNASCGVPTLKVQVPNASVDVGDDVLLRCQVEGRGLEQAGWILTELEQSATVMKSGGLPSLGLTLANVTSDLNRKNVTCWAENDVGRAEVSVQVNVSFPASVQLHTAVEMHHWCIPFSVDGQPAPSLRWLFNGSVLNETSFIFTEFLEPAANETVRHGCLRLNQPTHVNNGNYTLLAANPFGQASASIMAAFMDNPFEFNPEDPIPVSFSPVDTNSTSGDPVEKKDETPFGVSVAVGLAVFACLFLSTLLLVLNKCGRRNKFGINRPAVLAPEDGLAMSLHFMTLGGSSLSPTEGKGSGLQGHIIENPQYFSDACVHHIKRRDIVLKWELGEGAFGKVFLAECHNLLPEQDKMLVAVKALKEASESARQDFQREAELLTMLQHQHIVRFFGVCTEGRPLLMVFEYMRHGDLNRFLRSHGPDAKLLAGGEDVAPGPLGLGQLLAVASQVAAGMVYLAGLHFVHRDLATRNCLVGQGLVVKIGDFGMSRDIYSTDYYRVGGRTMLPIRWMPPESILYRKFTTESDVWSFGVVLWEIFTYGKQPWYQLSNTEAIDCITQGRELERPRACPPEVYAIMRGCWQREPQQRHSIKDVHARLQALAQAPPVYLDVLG
Sequence of UniProt Q07912 (Q07912 whole entry, looked up): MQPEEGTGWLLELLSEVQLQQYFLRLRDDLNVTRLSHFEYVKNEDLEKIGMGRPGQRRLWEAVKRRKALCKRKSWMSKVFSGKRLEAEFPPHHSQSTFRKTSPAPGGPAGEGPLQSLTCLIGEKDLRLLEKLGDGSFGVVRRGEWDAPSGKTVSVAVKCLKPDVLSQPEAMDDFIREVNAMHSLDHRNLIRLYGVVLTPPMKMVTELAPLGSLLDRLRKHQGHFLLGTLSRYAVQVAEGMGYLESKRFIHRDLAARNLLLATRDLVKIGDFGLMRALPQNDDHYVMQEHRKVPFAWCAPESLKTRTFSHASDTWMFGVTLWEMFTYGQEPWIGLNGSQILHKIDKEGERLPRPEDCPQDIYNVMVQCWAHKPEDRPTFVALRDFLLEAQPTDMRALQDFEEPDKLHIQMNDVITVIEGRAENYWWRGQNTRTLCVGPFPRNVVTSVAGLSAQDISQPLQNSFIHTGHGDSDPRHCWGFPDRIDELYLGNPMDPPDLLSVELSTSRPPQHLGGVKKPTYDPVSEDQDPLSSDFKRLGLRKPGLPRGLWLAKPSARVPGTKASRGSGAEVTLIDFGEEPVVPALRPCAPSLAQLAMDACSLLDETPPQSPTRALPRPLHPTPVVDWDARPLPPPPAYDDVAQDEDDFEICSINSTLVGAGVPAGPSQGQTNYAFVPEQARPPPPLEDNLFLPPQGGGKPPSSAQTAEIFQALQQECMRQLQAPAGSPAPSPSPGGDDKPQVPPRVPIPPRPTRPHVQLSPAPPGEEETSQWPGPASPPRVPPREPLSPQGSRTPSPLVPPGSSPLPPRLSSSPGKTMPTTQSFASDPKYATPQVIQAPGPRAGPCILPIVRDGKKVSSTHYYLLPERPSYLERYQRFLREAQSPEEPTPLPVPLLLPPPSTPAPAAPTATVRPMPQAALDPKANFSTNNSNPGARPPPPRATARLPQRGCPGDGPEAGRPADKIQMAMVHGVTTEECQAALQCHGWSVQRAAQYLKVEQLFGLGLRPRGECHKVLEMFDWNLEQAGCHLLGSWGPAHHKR
Sequence of UniProt Q16620 (Q16620 whole entry, looked up): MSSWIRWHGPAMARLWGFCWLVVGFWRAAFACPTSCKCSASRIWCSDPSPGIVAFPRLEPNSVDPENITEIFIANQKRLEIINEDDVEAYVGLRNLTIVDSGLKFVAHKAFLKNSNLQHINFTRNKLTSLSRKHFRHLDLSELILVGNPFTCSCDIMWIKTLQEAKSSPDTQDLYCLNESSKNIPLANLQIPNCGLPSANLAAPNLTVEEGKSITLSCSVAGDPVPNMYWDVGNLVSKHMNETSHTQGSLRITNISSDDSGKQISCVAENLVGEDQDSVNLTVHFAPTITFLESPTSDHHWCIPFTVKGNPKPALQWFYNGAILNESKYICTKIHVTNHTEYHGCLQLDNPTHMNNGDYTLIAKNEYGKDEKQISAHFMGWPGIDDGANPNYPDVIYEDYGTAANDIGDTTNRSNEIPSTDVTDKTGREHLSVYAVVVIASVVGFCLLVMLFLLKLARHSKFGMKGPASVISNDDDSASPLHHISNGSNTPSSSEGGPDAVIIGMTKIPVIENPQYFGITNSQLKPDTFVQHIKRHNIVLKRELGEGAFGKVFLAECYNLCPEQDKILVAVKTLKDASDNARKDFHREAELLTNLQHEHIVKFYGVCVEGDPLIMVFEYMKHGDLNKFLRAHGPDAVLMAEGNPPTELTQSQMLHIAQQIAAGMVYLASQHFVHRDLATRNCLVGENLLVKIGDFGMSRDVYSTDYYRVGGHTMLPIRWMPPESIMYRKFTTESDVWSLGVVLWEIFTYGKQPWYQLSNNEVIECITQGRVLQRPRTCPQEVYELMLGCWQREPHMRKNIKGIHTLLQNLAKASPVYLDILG

Row | Structure (SMILES) | inhibition [1] [%] | inhibition [2] [%] | inhibition [3] [%] | inhibition [4] [%] | inhibition [5] [%] | inhibition [6] [%] | inhibition [7] [%] | inhibition [8] [%] | inhibition [9] [%] | inhibition [10] [%] | inhibition [11] [%] | inhibition [12] [%] | inhibition [13] [%] | inhibition [14] [%] | inhibition [15] [%] | inhibition [16] [%] | inhibition [17] [%] | inhibition [18] [%] | inhibition [19] [%] | inhibition [20] [%]
1 | Cc1cccc(Oc2nccc(-c3c(-c4ccc(F)cc4)ncn3C3CCNCC3)n2)c1C | -4.58 | 0.84 | 3.75 | -0.14 | 4.85 | 0.53 | 6.06 | 0.55 | 1.36 | 2.94 | 2.44 | 3.62 | 3 | 2.66 | 3.33 | -1.3 | 3.02 | -2.76 | 10.2 | 3.78
2 | Fc1ccc(-c2ncn(C3CCNCC3)c2-c2ccnc(Oc3cccc(F)c3)n2)cc1 | 0.39 | 6.97 | 7.94 | 3.23 | 5.78 | 3.17 | 4.41 | 1.1 | 2.89 | 1.59 | 8.01 | 4.01 | 4.47 | 3.57 | 6.8 | 7.16 | 7.81 | -5.29 | 7.86 | 3.61
3 | O=C1NC(=O)C(c2cccc([N+](=O)[O-])c2)=C1Nc1cc(Cl)c(O)c(Cl)c1 | -2.48 | 0.43 | 5.27 |  | 4.76 | 1.38 | 16.7 | -0.27 | -0.08 | -0.82 | -0.43 | 1.25 | 0.97 | 1.51 | 1.33 | -2 | 0.63 | -1.44 | 3.3 | 4.32
4 | COc1ccccc1Oc1nccc(-c2c(-c3ccc(F)cc3)ncn2C2CCNCC2)n1 | -1.63 | 1.83 | 4.98 | 0.74 | 5.82 | 0.7 |  | 0.69 | 1.57 | 0.19 | 2.78 | 4.41 | 4.48 | 3.33 | 2.6 | 1.24 | 7.31 | -4.38 | 16 | 4.52
5 | O=C1NC(=O)C(c2ccccc2)=C1Nc1ccccc1 | 1.94 | 5.62 | 9.18 | 3.8 | 9.38 | 2.76 | 9.19 | 1.47 | 3.13 | 4.65 | 0.95 | 4.13 | 5.99 | 2.58 | 6.28 | 3.78 | 7.86 | -3.44 | 9.02 | 2.73
6 | CC(C)(C)c1ccc(Oc2nccc(-c3c(-c4ccc(F)cc4)ncn3C3CCNCC3)n2)cc1 | -0.62 | 1.98 | 3.44 | 2.87 | 4.69 | -2.21 | 3.9 | 1.3 | 1.57 | 4.18 | 6.54 | 3.43 | 4.77 | 2.36 | 3.58 | -0.65 | 2.64 | -0.01 | 13.5 | 2.69
7 | CS(=O)(=O)c1ccc(Oc2nccc(-c3c(-c4ccc(F)cc4)ncn3C3CCNCC3)n2)cc1 | -4.82 | 1.39 | 3.24 | 1.55 | 4.73 | -0.86 | 2.97 | 1.09 | 1.75 | 1.21 | 0.39 | 3 | 3.47 | 2.45 | 2.16 | -1.79 | 1.47 | -0.68 | 9.56 | 3.35
